In all, about 46,000 compounds went through this assay and about 60 (0.1%) were called active. Inconclusive results (about 3%) are left out. The call rests on the fitted dose curve; in most records, active means well fitted inhibition curve with a large enough effect; inconclusive means small, poorly fitted or top-dose-only effect; inactive means no such curve, though single readings can be large or run the other way. The list shows a part of the results.
assay: Primary qHTS assay for Inhibitors of ovarian cancer metastasis using an organotypic tumor microenvironment (TME) model.; further: nearly all actives have a fitted effect of over 65% in size;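 on activity change, negative = inhibition: plate controls were DMSO wells for no effect and tomatine positive control wells for full effect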; settings: SKOV3ip1-GFP adhesion/invasion on 3D omental model, fluorescence; series mostly up to 45.8 µM; activity change, negative = inhibition: at the top concentration
Method in brief: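 Primary human omental fibroblast/mesothelial 3D culture pre-formed 48 h. SKOV3ip1-GFP cells added with compounds (0.36-46 umol/L), incubated 2 h RT/16 h 37 C, fixed; GFP cells quantified at 488/509 nm.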

Row | SMILES | activity change, negative = inhibition | outcome
1 | CCC(=O)Oc1c(Sc2ccc(Cl)cc2)c(C)nn1-c1ccccc1 | inactive: -1.32% | –
2 | Cc1ccc(-c2nc(CS(=O)(=O)CC(=O)Nc3ccc(Br)cc3F)c(C)o2)cc1 | inactive: -3.81% | –
3 | O=C(NCCCN1CCN(c2cccc(Cl)c2)CC1)c1sc2ncccc2c1-n1cccc1 | – | inactive
4 | Cc1ccc(Nc2c(-c3ccc(Br)o3)nc3ccccn23)cc1 | inactive: 0.472% | –
5 | COc1ccc(S(=O)(=O)NCc2nc3nc(C)cc(C)n3n2)cc1 | inactive: 9.68% | –
6 | CCN(CC)S(=O)(=O)c1ccc2c(c1)N(CC(=O)NCc1ccccc1)C(=O)C1CCCCN21 (stereo unspecified) | inactive: 2.73% | –
7 | Cc1cc2c(cc1S(=O)(=O)Nc1ccc(OC(F)(F)F)cc1)OCC(=O)N2 | inactive: 0.492% | –
8 | COc1ccc2oc(=O)c(-c3nnc(-c4ccc(C)cc4)o3)cc2c1 | – | inactive
9 | Cc1ccc(-c2csc(-c3cc4c([nH]c3=O)CC(c3ccccc3)CC4=O)n2)cc1 (stereo unspecified) | inactive: 6.92% | –
10 | Cc1cc(Cl)ccc1NS(=O)(=O)c1c(C(=O)N2CCC(C)CC2)c(C)n(C)c1C | – | inactive
11 | Cc1cc(C=c2sc3nc4ccccc4n3c2=O)c(C)n1-c1ccccc1 | inactive: -26.9% | –
12 | CC1CCCN(c2nc3c(-c4ccc(Cl)cc4)nnn3c3ccccc23)C1 (stereo unspecified) | inactive: 3.03% | –
13 | CC(C)N(Cc1nc(-c2ccc(Cl)cc2)no1)C(=O)c1ccc(C(C)(C)C)cc1 | – | inactive
14 | Cc1nc(SCc2cccc(Cl)c2)nc2c1CCCC2 | inactive: 1.41% | –
15 | Cc1ccccc1Cn1c(SCc2ccc(C(=O)NC3CCCCC3)cc2)nc2ccncc21 | inactive: -6.9% | –
16 | Cc1ccc2ncc(C(=O)c3ccc(C)c(C)c3)c(S(=O)(=O)c3ccc(F)cc3)c2c1 | inactive: -1.96% | –
17 | CCOc1ccc(CC(=O)NCCc2sc3nc(-c4ccc(F)cc4)nn3c2C)cc1 | inactive: 6.19% | –
18 | O=C(NCCc1csc(-c2cccnc2)n1)c1cccc(Cl)c1 | – | inactive
19 | Fc1ccc(NCc2ccccc2-c2nnc(-c3ccccc3Cl)o2)cc1 | inactive: 0.459% | –
20 | CCOc1ccc(-c2cc3nc(C4CCN(C(=O)OC(C)(C)C)CC4)c(C(=O)Nc4cccc(CC)c4)cn3n2)cc1 | inactive: -10.1% | –
21 | COc1cc(NC(=O)Cn2c(=O)cc(C)c3c(C)nn(-c4ccc(C)cc4)c32)cc(OC)c1 | inactive: -8.9% | –

Row | SMILES | activity change, negative = inhibition | outcome
22 | CC(=O)N1c2ccc(S(=O)(=O)N3CCCCCC3)cc2CC1C(=O)NCc1cccc(C)c1 (stereo unspecified) | – | inactive
23 | Cc1ccc(CNc2nnc(C)c3nnn(Cc4ccc(F)cc4)c23)cc1 | inactive: 4.93% | –
24 | COc1cccc(CN2C(=O)c3ccccc3Sc3ccc(C(=O)OCc4ccco4)cc32)c1 | – | inactive
25 | CC1=C(c2ccc(Cl)cc2)S(=O)(=O)N=C1N1CCN(c2cccc(C)c2C)CC1 | inactive: -2.41% | –
26 | Cc1ccc(-n2ncc3c(NCc4ccccc4)ncnc32)cc1Cl | – | inactive
27 | CCCCOc1ccc(C(=O)N(Cc2ccc(N(C)C)cc2)Cc2ccco2)cc1 | inactive: -7.56% | –
28 | Cc1ccc(-n2ccn(CC(=O)NCCc3ccccc3)c(=O)c2=O)cc1C | inactive: 0.274% | –
29 | CC(C)(C)c1ccc(-c2nc(NC(=O)CSc3ncnc4sc5c(c34)CCCC5)ns2)cc1 | inactive: 3.84% | –
30 | COc1ccc(NC(=O)CN(C)S(=O)(=O)c2ccc3c(c2)CCCN3C(C)=O)cc1 | inactive: 25.6% | –
31 | COc1ccc(N2CC(NC(=O)/C=C\c3ccc4c(c3)OCO4)CC2=O)cc1OC (stereo unspecified) | – | inactive
32 | CCc1ccc(NC(=O)CSc2nccn2-c2ccc(F)cc2)cc1 | inactive: -17.7% | –
33 | Cc1ccccc1CNC(=O)c1ccc2nc(SCc3ccc(F)cc3)n(C)c2c1 | inactive: -9.93% | –
34 | CCOCCCNC(=O)C(c1ccccc1)N(Cc1ccc2c(c1)OCO2)C(=O)c1ccc(NC(C)=O)cc1 (stereo unspecified) | inactive: 4.3% | –
35 | COc1ccccc1NC(=O)CSc1nncn2c1cc1sccc12 | inactive: -23% | –
36 | O=C(c1ccco1)N(Cc1cccnc1)c1nc2c(F)cc(F)cc2s1 | inactive: -6.72% | –
37 | COc1ccc2cc1Oc1ccc(cc1)C[C@H]1c3cc(c(OC)cc3CCN1C)Oc1c(OC)c(OC)cc3c1[C@H](C2)N(C)CC3 | inactive: 1.09% | –
38 | CCc1ccccc1NC(=O)Cn1cc(S(=O)(=O)N2CCCC2)c(S(=O)(=O)N2CCCC2)c1 | inactive: 1.55% | –
39 | Cc1ccc2cccc(NC(=O)c3ccc(OC(C)C)cc3)c2n1 | – | inactive
40 | O=C(NCc1ccc2c(c1)OCO2)c1ccc2c(c1)N(Cc1ccccc1F)C(=O)c1ccccc1S2 | – | inactive
41 | CCc1ccccc1NC(=O)CN(c1ccccc1)S(=O)(=O)c1ccsc1C(=O)OC | inactive: -2.51% | –
42 | CCCOc1ccc(-c2cccc(NS(=O)(=O)c3ccccc3)c2)nn1 | – | inactive

Row | SMILES | activity change, negative = inhibition | outcome
43 | Cc1ccccc1CN1C(=O)c2ccccc2S(=O)c2ccc(C(=O)NCc3ccc(Cl)cc3)cc21 (stereo unspecified) | inactive: 0.468% | –
44 | CCC(=O)C1=C(c2ccc(F)cc2)N(C(=O)CC)n2cnnc2S1 | – | inactive
45 | CCOC(=O)c1ccc(NC(=O)C(CC)Sc2nc3ccncc3[nH]2)cc1 (stereo unspecified) | inactive: -3.36% | –
46 | Cc1cc(C)cc(-n2c(C)cc(C(=O)C(=O)Nc3ccccc3F)c2C)c1 | inactive: 2.85% | –
47 | CCn1c(=O)cc(SCC(=O)NCc2cccc(Cl)c2)c2ccccc21 | inactive: -7.2% | –
48 | COc1ccc(Cn2c(C(=O)O)c(CNC3CCCC3)c3ccc(OC)cc32)cc1 | – | inactive
49 | COc1ccccc1C(=O)N1c2ncnn2C2(CCCCC2)[C@@H]2CCCC[C@@H]21 | inactive: -0.919% | –
50 | CC(C)c1ccc(OCC(=O)NCCS(=O)(=O)N2CCN(c3ccc(F)cc3)CC2)cc1 | inactive: -0.117% | –
51 | Cc1c(Cl)cccc1NC(=O)c1ccc2c(c1)CCCN2S(C)(=O)=O | inactive: -23% | –
52 | CCCCOc1ccc(C(=O)Nc2ccc(-c3cc4ccccc4oc3=O)cc2)cc1 | inactive: -1.31% | –
53 | CC(C)(C)OC(=O)N1CCC(c2c(C(=O)NCCN3CCc4ccccc4C3)cnn2-c2ccc(F)cc2)CC1 | inactive: 0.168% | –
54 | Cc1ccc(CNC(=O)Nc2cc(C(=O)NCc3ccc(C(C)C)cc3)ccc2N2CCCC2)cc1 | inactive: -0.653% | –
55 | CCOc1ccc(-c2nn(-c3ccccc3)cc2C2NC(=O)NC(C)=C2C(=O)OC(C)C)cc1 (stereo unspecified) | – | inactive
56 | Cc1ccc(N2CC(NC(=O)c3cc4ccccc4o3)CC2=O)cc1C (stereo unspecified) | inactive: -5.94% | –
57 | CCc1ccccc1NC(=O)CCOc1ccccc1 | inactive: -12.1% | –
58 | CCc1ccc(C2=NN(CCC(=O)NCCc3ccc(OC)c(OC)c3)C(=O)CC2)cc1 | – | inactive
59 | CCCOc1ccc(-c2nonc2NC(=O)c2cc(OC)c(OC)c(OC)c2)cc1OCCC | inactive: -17% | –
60 | CC(C)c1nn2c(=O)cc(COC(=O)c3cccc(NC(=O)c4cccs4)c3)nc2s1 | inactive: 1.59% | –
61 | COCCNC(=O)c1c[nH]c2ccc(S(=O)(=O)Nc3ccc(F)cc3F)cc2c1=O | inactive: 16.5% | –

Source: PubChem BioAssay AID1963576 (National Center for Advancing Translational Sciences (NCATS), 2024)
